According to PubChem BioAssay AID1347165 (National Center for Advancing Translational Sciences (NCATS), 2019):
Out of some 220,000 compounds screened, about 5,700 (2.6%) were called active. This list was built around the results that the source calls inconclusive (neither active nor inactive); the mix of calls is not that of the screen. Calls come from the whole dose curve; as a rule, active = well fitted inhibition curve with a large enough effect; inconclusive = small, poorly fitted or top-dose-only effect; inactive = no such curve, though single readings can be large or run the other way. A potency beside an inconclusive call is a rough fit, not a confirmed value.

target: Lysine-specific demethylase 5B (Homo sapiens) (UniProt Q9UGL1); assay: Primary screen for KDM5B Histone Demethylases FDH-coupled qHTS; settings: FDH-coupled NADH fluorescence (FDH is formaldehyde dehydrogenase); activity change, negative = inhibition: at 57.7 µM (top of the series) unless noted; note: nearly all actives have a fitted effect of over 70% in size; for activity change, negative = inhibition: 0% is about no effect
UniProt Q9UGL1, sequence (Q9UGL1 whole entry, looked up, the tested form may be a part): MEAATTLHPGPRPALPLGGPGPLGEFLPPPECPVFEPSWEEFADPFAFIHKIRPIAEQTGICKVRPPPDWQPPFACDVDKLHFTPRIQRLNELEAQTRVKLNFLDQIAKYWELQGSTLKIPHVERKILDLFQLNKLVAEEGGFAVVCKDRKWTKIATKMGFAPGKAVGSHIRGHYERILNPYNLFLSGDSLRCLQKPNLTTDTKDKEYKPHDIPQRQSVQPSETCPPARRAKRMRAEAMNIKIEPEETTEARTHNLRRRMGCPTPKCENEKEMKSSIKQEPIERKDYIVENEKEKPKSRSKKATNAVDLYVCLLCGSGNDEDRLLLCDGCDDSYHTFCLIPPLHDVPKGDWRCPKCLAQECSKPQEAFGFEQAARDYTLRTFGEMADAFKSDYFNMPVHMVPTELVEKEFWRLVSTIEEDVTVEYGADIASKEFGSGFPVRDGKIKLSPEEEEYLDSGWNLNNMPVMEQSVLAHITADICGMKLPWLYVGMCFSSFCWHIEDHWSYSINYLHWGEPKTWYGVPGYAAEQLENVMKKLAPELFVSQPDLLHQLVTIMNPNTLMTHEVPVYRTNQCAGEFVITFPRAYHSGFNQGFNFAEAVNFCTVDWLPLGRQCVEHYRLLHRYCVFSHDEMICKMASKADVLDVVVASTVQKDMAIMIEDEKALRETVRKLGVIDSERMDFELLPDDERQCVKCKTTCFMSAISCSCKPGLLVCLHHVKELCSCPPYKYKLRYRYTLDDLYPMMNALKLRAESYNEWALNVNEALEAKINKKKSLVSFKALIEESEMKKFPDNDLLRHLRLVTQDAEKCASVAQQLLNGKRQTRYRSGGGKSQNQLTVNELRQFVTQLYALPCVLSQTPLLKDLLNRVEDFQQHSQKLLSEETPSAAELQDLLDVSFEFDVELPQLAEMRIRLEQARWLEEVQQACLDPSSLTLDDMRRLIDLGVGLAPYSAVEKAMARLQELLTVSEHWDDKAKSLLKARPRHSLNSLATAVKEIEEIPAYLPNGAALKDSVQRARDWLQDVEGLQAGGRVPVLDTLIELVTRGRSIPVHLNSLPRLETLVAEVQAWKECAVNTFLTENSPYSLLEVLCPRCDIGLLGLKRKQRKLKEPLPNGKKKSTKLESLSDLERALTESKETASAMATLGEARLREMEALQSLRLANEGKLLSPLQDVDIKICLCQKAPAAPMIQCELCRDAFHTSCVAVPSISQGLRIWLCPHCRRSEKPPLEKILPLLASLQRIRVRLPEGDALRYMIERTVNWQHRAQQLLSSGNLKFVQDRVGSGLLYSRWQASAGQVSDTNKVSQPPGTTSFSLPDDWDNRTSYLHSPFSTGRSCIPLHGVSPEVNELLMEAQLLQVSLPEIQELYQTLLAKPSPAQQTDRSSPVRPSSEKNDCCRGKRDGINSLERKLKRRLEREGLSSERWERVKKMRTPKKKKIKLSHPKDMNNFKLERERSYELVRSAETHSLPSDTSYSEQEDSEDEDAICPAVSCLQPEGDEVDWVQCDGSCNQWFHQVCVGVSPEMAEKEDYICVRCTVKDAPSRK
Outline: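 Inhibition is measured as reduced NADH fluorescence generation from FDH coupling to formaldehyde release. Truncated KDM5BΔAP at 200 nM final acts on H3K4me3 peptide (12.5 µM in substrate mix) in pH 7.5 HEPES buffer with Tween-20, 30 min, room temperature.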
Potency is the fitted concentration of half-maximal effect; tags give direction and shape of the fitted curve.

SMILES | Potency | activity change, negative = inhibition
COC(=O)C(C)NC(=S)N1CCN(c2c(F)cc3c(=O)c(C(=O)O)cn(C4CC4)c3c2OC)CC1C (configuration not stated) | inconclusive: 35.5 µM [inhibitor, partial curve, poor fit] | –
N#Cc1ccc(Oc2cccc(-c3cnc4ccccc4n3)c2)cc1C#N | inactive | –
Cc1ccc(C(=O)NC(C)C2CCCO2)cc1 (configuration not stated) | inactive | –
O=C1Nc2ccc(/C=C/c3ccccc3)cc2C(=O)N2C[C@H](O)C[C@@H]12 | active: 28.2 µM | –
CCCc1noc(-c2ccn3c(CNC(=O)c4ccc(F)c(Cl)c4)nnc3c2)n1 | inconclusive: 12.6 µM [inhibitor, partial curve, poor fit] | –
CCc1ccc(-n2c(=O)c3cccnc3n2CC(=O)N(CC)c2cccc(C)c2)cc1 | inconclusive: 35.5 µM [inhibitor, partial curve, poor fit] | –
Nc1nc2c(s1)C(c1ccc(F)c(F)c1)CC(=O)N2 (configuration not stated) | inconclusive: 25.1 µM [inhibitor, partial curve, poor fit] | –
Cc1ccc(-n2ncc3c(NCCc4ccccc4)ncnc32)cc1 | inconclusive: 31.6 µM [inhibitor, partial curve, poor fit] | –
CCOc1ccc(S(=O)(=O)n2nc(C)c(S(=O)(=O)N3CCCCCC3)c2C)cc1 | inconclusive: 35.5 µM [inhibitor, single point] | –
CCOC(=O)c1sc(N)c(SC#N)c1C | inconclusive: 15.8 µM [inhibitor, partial curve, poor fit] | –
Cc1ccc(-c2cc(C(=O)Nc3ccccn3)c3ccccc3n2)cc1 | inconclusive: 31.6 µM [inhibitor, single point] | –
CN1CCN(c2ncc3c(n2)CCN(Cc2ccccc2Cl)C3)CC1 | inconclusive: 31.6 µM [inhibitor, single point] | –
CC1=C(C(=O)OC(C)(C)C)C(c2ccc(Cl)cc2Cl)C(C#N)=C(N)O1 (configuration not stated) | inconclusive: 35.5 µM [inhibitor, single point] | –
COc1ccccc1NC(=O)C1=C(C)Nc2ncnn2C1c1ccc[nH]1 (configuration not stated) | inconclusive: 25.1 µM [inhibitor, partial curve, poor fit] | –
Cc1ccc(-c2ccc3nnc(CNC(=O)C4CCCCC4)n3n2)cc1 | inconclusive: 7.08 µM [inhibitor, partial curve, poor fit] | –
CCN(c1ccccc1)S(=O)(=O)c1cc(C(=O)Nc2ccc(Br)cc2)ccc1F | inconclusive: 25.1 µM [inhibitor, partial curve, poor fit] | –
Nc1nc(CCCNC(=O)C2NCCc3[nH]cnc32)cs1 (configuration not stated) | active: 25.1 µM | –
CCOC(=O)c1cnc2c(Cl)c(Cl)ccc2c1NCC(C)O (configuration not stated) | inactive | –
Cc1c(C(=O)Nc2cc(F)ccc2F)sc2nc(-c3ccccc3)cn12 | inactive | –
CC(C)(C)OC(=O)N1CCC(c2c(C(=O)NCCN3CCOCC3)cnn2-c2ccccc2)CC1 | inactive | –
CCONC(=O)c1cc2cc(C)ccc2o1 | inactive | –
CCCN(C(=O)c1ccc2c(=O)n3c(nc2c1)CCCC3)c1ccc(OCC)cc1 | inactive | –
COc1ccc(C(=O)N[C@H]2C[C@H]3C(=O)NC[C@@H](CCC(=O)N4CCN(C)CC4)N3C2)cc1 | inactive | –

SMILES | Potency | activity change, negative = inhibition
COc1cc(NC(=O)CCCSc2nc(-c3ccco3)cc(C(F)(F)F)n2)cc(OC)c1OC | – | inconclusive: -152% [inhibitor] [at 11.5 µM]
Cn1c(=O)c2c(nc(SCCCC#N)n2Cc2ccc(Cl)c(Cl)c2)n(C)c1=O | inactive | –
Cn1cc(C(C(=O)O)N2CCCC2)c2cc(C(=O)O)ccc21 (configuration not stated) | inconclusive: 31.6 µM [inhibitor, single point] | –
COc1cccc(Cn2c(SCc3ccc(C(=O)N4CCC(C)CC4)cc3)nc3ccncc32)c1 | inconclusive: 22.4 µM [inhibitor, partial curve, poor fit] | –
CCc1nc2c(c(-c3ccc(OC)cc3)n1)CCN(Cc1ccccc1)CC2 | inconclusive: 20 µM [inhibitor, full curve] | –
COCCCNc1nc2ccccc2nc1N(C)S(=O)(=O)c1ccc(C)cc1 | inconclusive: 20 µM [inhibitor, partial curve, poor fit] | –
CC(C)=CC1C(C(=O)Nc2c(C)cccc2C(C)C)C1(C)C (configuration not stated) | inactive | –
O=C(CN1CCc2ccccc2C1)N1N=C(c2ccco2)CC1c1cccs1 (configuration not stated) | inactive | –
Cc1cc(C)n(-c2nc(-c3ccccc3)cc(=O)n2CC(=O)Nc2ccccc2)n1 | inconclusive: 39.8 µM [inhibitor, single point] | –
O=C(c1ccc(Cl)cc1)N(Cc1ccco1)c1ccc(O)cc1 | inactive | –
Cc1cccc(OC[C@H]2C[C@@H](NCc3nccn3C)[C@H](O)[C@@H]2O)n1 | inconclusive: 17.8 µM [inhibitor, partial curve, poor fit] | –
COCCN1CCCCCC(O)c2cc(C(=O)NCc3ccccc3OC)ccc21 (configuration not stated) | inconclusive: 39.8 µM [inhibitor, single point] | –
Cc1cnc2c(S(=O)(=O)NCC3CC3)cccc2c1 | inactive | –
CCc1c(C(=O)Nc2ccc(C)cc2)cnn1-c1ccc(OC)nn1 | inactive | –
CC(C)c1noc(-c2cccn3c(CNC(=O)c4ccccc4F)nnc23)n1 | inconclusive: 28.2 µM [inhibitor, partial curve, poor fit] | –
Nc1nccnc1C(=O)NCc1csc(Br)c1 | inconclusive: 22.4 µM [inhibitor, partial curve, poor fit] | –
COc1ccc(-c2cn(C)c(=O)n3cc(CN(C)C)nc23)cc1OC | active: 35.5 µM | –
CCc1nc2c(c(-c3ccc(Cl)cc3)n1)CCN(Cc1cccc3ccccc13)CC2 | inconclusive: 22.4 µM [inhibitor, single point] | –
O=S(=O)(c1ccccc1)c1nc(-c2ccc(F)cc2)oc1N1CCCCCC1 | inconclusive: 25.1 µM [inhibitor, partial curve, poor fit] | –
Cc1ccc(-c2nc(C#N)c(NCCCN(C)C)o2)cc1 | inconclusive: 1.78 µM [inhibitor, partial curve, poor fit] | –
Cc1nc(=O)[nH]c(C)c1CCC(=O)N[C@H](c1ccccn1)C1CC(O)C1 (some centres not stated) | inconclusive: 31.6 µM [inhibitor, partial curve, poor fit] | –
CC1(C)[C@H](Cc2cc(CC3CCCCC3)on2)C[C@@H]1NS(C)(=O)=O | inconclusive: 39.8 µM [inhibitor, partial curve, poor fit] | –
Clc1cc(NCc2ccccn2)n2nccc2n1 | inconclusive: 31.6 µM [inhibitor, partial curve, poor fit] | –

SMILES | Potency | activity change, negative = inhibition
Cn1c(CN2CCOCC2)nnc1C1CCCN(CCC(=O)O)C1 (configuration not stated) | inactive | –
Cc1ccc(C)c(CNC(=O)c2cnc3sc(N4CCCC4)nn3c2=O)c1 | inconclusive: 8.91 µM [inhibitor, partial curve, poor fit] | –
Cc1cccc(-n2ncc3c(N4CCCCCC4)ncnc32)c1 | inconclusive: 31.6 µM [inhibitor, single point] | –
Cc1ccc(CN(Cc2ccco2)C(=O)c2oc3ccc(C)cc3c2C)cc1 | inconclusive: 14.1 µM [inhibitor, partial curve, poor fit] | –
Cc1cnc(C(=O)Oc2c(C)cccc2C)cn1 | inactive | –
CN1C[C@H](C(=O)N2CCN(c3ccccn3)CC2)C[C@H]1c1cccc(C(F)(F)F)c1 | active: 39.8 µM | –
O=C(c1cc(COc2ccc(F)cc2Cl)on1)N1CCN(c2cnccn2)CC1 | inconclusive: 31.6 µM [inhibitor, partial curve, poor fit] | –
CCCCN1C(=O)C(O)(c2c(C)[nH]c3ccccc23)c2ccccc21 (configuration not stated) | inconclusive: 20 µM [inhibitor, partial curve, poor fit] | –
Cc1csc2ncnc(N3CCN(C(=O)Nc4ccc(OC(F)(F)F)cc4)CC3)c12 | inconclusive: 14.1 µM [inhibitor, partial curve, poor fit] | –
Cc1cccc(-c2nc(C#N)c(N3CCN(C(=O)c4ccc(F)cc4)CC3)o2)c1 | inactive | –
Cc1ccccc1[C@H]1C[C@@H](O)[C@@H](O)[C@@H]1NC(=O)C(C)C | inactive | –
CS(=O)(=O)c1ccc(OCC2(CNCc3ccc(F)cc3)C[C@@H](O)[C@@H](O)C2)cc1 (some centres not stated) | inactive | –
COc1ccc(-c2nc3c(c(=O)[nH]2)CCN(C(=O)Cc2ccc(OC)c(Cl)c2)C3)cc1 | inconclusive: 39.8 µM [inhibitor, single point] | –
CCCNC(=O)CN1CCN(c2ncc(NC(=O)c3ccc(Cl)cc3)cc2C(=O)O)CC1 | inconclusive: 14.1 µM [inhibitor, partial curve, poor fit] | –
Oc1ccc2ccccc2c1C=NCCSSCCN=Cc1c(O)ccc2ccccc12 | inconclusive: 7.94 µM [inhibitor, full curve, poor fit] | –
COc1ccccc1CC(=O)Nc1ccc2nc(N3CCC(C)CC3)cc(C)c2c1 | inconclusive: 15.8 µM [inhibitor, partial curve, poor fit] | –
Cc1ccc(-n2nc(C)c([C@@H]3C=C[C@@H](NC(=O)NC4CCCCC4)C3)c2C)cc1Cl | inconclusive: 31.6 µM [inhibitor, single point] | –
CS(=O)(=O)N1CCN(C(C(=O)O)c2c[nH]c3cc(F)ccc23)CC1 (configuration not stated) | inactive | –
COc1ccc2nc(/C(C#N)=C\c3ccc(C)o3)[nH]c2c1 | inactive | –
c1ccc(CCCCn2ccnc2-c2cc3n(n2)CCCNC3)cc1 | inconclusive: 17.8 µM [inhibitor, partial curve, poor fit] | –
CN(C)C(=O)N1CCc2nc(-c3ccc(Cl)cc3)nc(-c3ccccc3)c2C1 | inactive | –
